The source of these data is ChEMBL document CHEMBL4888484, “Replenishing the malaria drug discovery pipeline: Screening and hit evaluation of the MMV Hit Generation Library 1 (HGL1) against asexual blood stage Plasmodium falciparum ,using a nano luciferase reporter read-out” (2022).

For orientation: % Inhibition means the relative decrease from the control value, in per cent.

Structures are written as SMILES. About 540 (0.36%) of roughly 150,000 compounds showed an effect of 50% or more. The list shows a part of the results.

The test concerns Plasmodium falciparum. Nature of the test: Primary screen in NF54 nanoGlo assay, in single point, at 2uM, 72h; a lower Z score goes with more inhibition. In kind it is functional, Erythrocyte. As to conditions: timepoint 72 hour.
Take `CCCOc1c(Cl)cc(CN2CCCC3(C2)OCCO3)cc1OCC`: the “% Inhibition” value is reported as -13% and the Z score stood at 1.6.
As to `N#Cc1ccc(C(=O)N2C[C@@H]3C[C@H](C2)c2c(-c4ccc(OC(F)(F)F)cc4)ccc(=O)n2C3)cc1`, the “% Inhibition” value is -5% and the Z score was determined as 0.7.
Take `CCC(=O)N1CCN(C(=O)c2ccnc(OC)c2)[C@H]2CS(=O)(=O)C[C@H]21`: the “% Inhibition” value was -12% and the Z score amounted to 1.67.
On the same counts, the results for `CC[C@@H](C(=O)NCc1ccccn1)n1c(Cc2c(Cl)cccc2Cl)nc2ccccc21` are -7% and 1.02.
With `COc1c[nH]c(C(=O)NCc2cccnc2N(C)C2CCCCC2)cc1=O`, the “% Inhibition” value was -9% and the Z score is listed as 1.71.
In the same order, the values of `COc1ccc2[nH]c([C@H]3CCN(CC4CC4)C3)nc2c1` are 28% and -3.21.
On to `O=C(CCN1CCCC1=O)N[C@H]1CN(Cc2ccccn2)C[C@@H]1C1CC1`, for which the “% Inhibition” value was -6% and the Z score worked out at 1.03.
Turning to `COc1ccc(S(=O)(=O)NC(=N)N)cc1OC`, the “% Inhibition” value is -14% and the Z score amounted to 1.83.
On the same counts, the results for `CCCC(=O)N1CCC[C@H](c2nnc(C(=O)Nc3cccc(F)c3)s2)C1` are -3% and 0.44.
In the case of `Cc1nn(-c2ncnc3[nH]cnc23)c2c1[C@@H](c1ccc(O)cc1)CC(=O)N2`, the “% Inhibition” value is reported as -12% and the Z score is 1.38.
On the same counts, the results for `C[C@H](NC(=O)Cc1cnccc1C(F)(F)F)c1ccc(Cl)cn1` are 1% and -0.15.
On the same counts, the results for `Cc1ccccc1S(=O)(=O)N1CCCC2(CCNCC2)CC1` are 1% and -0.21.
On the same counts, the results for `O=c1cc(N2CCOCC2)cnn1C[C@H]1CCCO1` are 5% and -0.93.
Consider `Cn1cc(CN(C(=O)CN2C(=O)COc3cccnc32)C2CCCCC2)cn1`, for which the “% Inhibition” value is listed as -3% and the Z score is on record as 0.42.
In the same order, the values of `Cc1ccc(C2Nc3ccccc3C(=O)N2CC2CCCO2)s1` (centres undefined) are 14% and -1.61.
In the same order, the values of `c1cnc(N2CCN(c3nc4nonc4nc3N3CCCC3)CC2)cn1` are -19% and 2.76.
Turning to `Cc1nn(C)c(NC(=O)c2ccc(Cl)cc2)c1C1=CCCCC1`, the “% Inhibition” value is 35% and the Z score is -1.02.
Take `Cc1cccc(NS(=O)(=O)c2ccc3nncn3c2)c1`: the “% Inhibition” value was determined as 37% and the Z score was -5.33.
Turning to `COc1ccc(-c2noc(CCC(=O)NCc3nc(C)cs3)n2)cc1OC`, the “% Inhibition” value is -1% and the Z score was 0.15.
In the same order, the values of `CCCCNc1cc(N2CCN(C[C@H]3CCOC3)CC2)nc(N)n1` are -8% and 1.11.
On the same counts, the results for `c1cc(NCc2cnc(C3CCC3)s2)cc(-n2cnnc2)c1` are -2% and 0.34.
In the same order, the values of `CC(=O)c1ccc(N2CCN(C(=O)CCc3nc4ccccc4s3)CC2)cc1` are -3% and 0.28.
Consider `CN(C)c1ncccc1CNC(=N)Nc1ccccc1`, for which the “% Inhibition” value is 3% and the Z score was -0.52.
For `CC(C)c1ncc(CN(C)CC2CCCC2)cn1`, the “% Inhibition” value is listed as -7% and the Z score came out at 1.24.
As for `Cc1ccc(CN2CCNC(=O)[C@@H]2CC(=O)NC2Cc3ccccc3C2)o1`, the “% Inhibition” value was -7% and the Z score is 1.05.
In the same order, the values of `O=C(Nc1cccc2[nH]nnc12)N1CCCCCC1` are -2% and 0.34.
In the same order, the values of `CC(C)c1nn(C)c2sc(C(=O)N3CC(C)C(N(C)C)C3)cc12` (centres undefined) are -16% and 1.62.
As for `O=C(COC(=O)Cn1ccc(C(F)(F)F)n1)Nc1ccc2c(c1)OCCCO2`, the “% Inhibition” value is listed as -13% and the Z score was determined as 2.48.
On the same counts, the results for `CC1CCN(C[C@H]2CCCN(C(=O)c3ccc(F)cc3)CC2)CC1` are -1% and 0.14.
On the same counts, the results for `Cc1nnc(CN(C)Cc2cnnn2Cc2ccccc2)n1C` are -7% and 1.21.
Regarding `Cc1cc(Br)c2c(c1)CN(c1ccc(C(N)=O)nn1)CC2`, the “% Inhibition” value is reported as -16% and the Z score turned out to be 1.55.
In the same order, the values of `COCCN1C(=O)c2ccccc2C(C(=O)NCC2COc3ccccc3O2)C1c1ccc(F)cc1` (centres undefined) are -6% and 0.91.
On the same counts, the results for `CN(Cc1ccccc1)c1ncnc(Oc2ccc(F)cc2)c1N` are 0% and -0.07.
On the same counts, the results for `CC1COCC(C)N1C(=O)CCC1CCNCC1` (centres undefined) are -7% and 1.05.
As for `CCN(Cc1nc2ccccc2s1)C1CCN(C(C)c2ccccc2)C1` (centres undefined), the “% Inhibition” value was -13% and the Z score was found to be 1.41.
On the same counts, the results for `COc1ccc(-c2cn3c(C(=O)N(C)[C@@H](C)c4ccon4)csc3n2)cc1F` are -7% and 1.01.
In the same order, the values of `O=C(N[C@H]1C[C@H](c2ccc(F)cc2)C1)c1ccnnc1` are 1% and -0.25.
`Cc1ccn(Cc2nc([C@@H](C)C3(C)CC3)no2)n1`: the “% Inhibition” value is 1% and the Z score is -0.19.
`CCOc1ccc2c(c1)-c1c(ssc1=S)C(C)(C)N2C(=O)[C@H](Cc1ccccc1)N1C(=O)c2ccccc2C1=O`: the “% Inhibition” value is 0% and the Z score is -0.05.
In the same order, the values of `CCN(CC)[C@@H](CNC(=O)N1CCC2(CC1)COC(=O)O2)c1ccco1` are -8% and 1.55.
As for `CCOc1ccc(CC(=O)N2CCC3(CC2)C(=O)N(C)c2ccccc23)cc1`, the “% Inhibition” value is listed as -8% and the Z score came to 1.33.
With `CCc1[nH]c(-c2ccc(Cl)cc2)nc1C(=O)N1C[C@H]2OCCN(C)[C@H]2C1`, the “% Inhibition” value was -44% and the Z score was found to be 5.15.
